Test results taken from PubChem BioAssay (NCATS).
This list was built around the results that the source calls inconclusive (neither active nor inactive); the mix of calls is not that of the screen. Potencies of inconclusive entries are left out as doubtful fits. Active and inactive are the calls of the source. The call rests on the fitted dose curve; in most records, active means well fitted inhibition curve with a large enough effect; inconclusive means small, poorly fitted or top-dose-only effect; inactive means no such curve, though single readings can be large or run the other way.
On the % scale 0 is the no-effect control and ±100 the full control effect; potency means the concentration at half of the fitted maximal effect; tags describe the fitted curve by direction and shape.

These molecules were tested against Cytochrome P450 2D6 (Homo sapiens) (UniProt P10635) (assay: qHTS Assay for Inhibitors and Substrates of Cytochrome P450 2D6 (AID 891;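 further: luciferin methyl ether substrate demethylated by CYP2D6 with NADPH regeneration; nearly all actives have a fitted effect of over 60% in size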; on activity change, negative = inhibition: top concentration of the series differs between compounds)). Settings: recombinant CYP2D6, luciferin-ME EGE luminescence; series mostly up to 11.4 µM; activity change, negative = inhibition: at the top concentration.
UniProt P10635, sequence (P10635 whole entry, looked up): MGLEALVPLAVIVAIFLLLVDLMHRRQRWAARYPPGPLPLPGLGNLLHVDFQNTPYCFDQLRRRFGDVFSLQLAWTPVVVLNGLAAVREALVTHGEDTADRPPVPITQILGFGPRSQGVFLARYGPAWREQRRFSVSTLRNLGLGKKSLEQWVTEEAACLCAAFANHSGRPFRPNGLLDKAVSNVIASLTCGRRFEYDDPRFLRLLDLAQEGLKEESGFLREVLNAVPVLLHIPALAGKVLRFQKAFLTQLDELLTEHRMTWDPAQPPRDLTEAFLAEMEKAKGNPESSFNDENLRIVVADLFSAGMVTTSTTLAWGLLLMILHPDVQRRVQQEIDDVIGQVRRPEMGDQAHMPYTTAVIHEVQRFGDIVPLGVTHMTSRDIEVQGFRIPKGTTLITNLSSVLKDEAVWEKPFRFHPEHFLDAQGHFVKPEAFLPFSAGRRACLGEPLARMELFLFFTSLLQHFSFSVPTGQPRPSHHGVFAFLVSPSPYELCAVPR
Method in brief: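 Human CYP2D6 (5 nM) with 30 uM Luciferin-ME EGE (at Km) in 100 mM KPO4, compound preincubated 10 min, then NADPH regeneration system for 60 min at room temperature. Luciferin read by luminescence; normalized to 1.43 uM quinidine.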
For `CN(C)Cc1ccccc1-c1cc(NC2CC2)ncn1`, the Potency was active: 0.0398 µM. In the case of `C[C@@]12CCC(=O)C=C1CC[C@@H]1[C@@H]2[C@H](O)C[C@]2(C)[C@@H]1CC[C@]2(O)C(=O)CO`, the “activity change, negative = inhibition” value is reported as inactive: 6.54% [at 57.1 µM]. In the case of `CCCCCCC1=Cc2cc(OC)c(OC)cc2C(CC(=O)/C=C/OC)O1` (stereo unspecified), the “activity change, negative = inhibition” value is reported as inactive: -1.66%. In the case of `CC(C)C[C@@H](CC(=O)N[C@@H](CCC(=O)O)CC(=O)O)NC(=O)[C@@H]1CCCC[C@H]1NC(=O)C[C@H](CCCN)NC(=O)C[C@H](Cc1ccccc1)NC(=O)[C@@H]1CNCC[C@H]1N`, the “activity change, negative = inhibition” value is reported as inactive: -2.31% [at 57.1 µM]. For `CC1CCC2C(=O)N3C(CCC(C)C3c3ccc(-c4ccco4)cc3)C(=O)N2C1c1ccc(-c2ccco2)cc1` (stereo unspecified), the “activity change, negative = inhibition” value was inactive: -0.705%. `CCN(CCO)C[C@H]1CCC[C@H]2CCCC[C@@H]21` was tested, and the Potency was inconclusive [inhibitor, single point]. In the case of `COc1ccc(O[C@H]2C=C[C@@H](c3ccccc3)O[C@H]2COC(=O)CC/C(C)=N\O[C@@H](C)CN2CCCCc3nc(C)c(C)cc32)cc1`, the Potency is reported as inconclusive [inhibitor, single point]. With `c1ccc2sc(SCN(C3CCCCC3)C3CCCCC3)nc2c1` the Potency was active: 1.58 µM. For `Cc1ccc(S(=O)(=O)N[C@@H](CCc2ccccc2)CC(=O)C(C)(C)C)cc1`, the Potency was inconclusive [inhibitor, single point]. With `COc1ccc(OC)c([C@H]2Nc3ccccc3NC3=C2C(=O)CC(C)(C)C3)c1Br` the “activity change, negative = inhibition” value was inactive: -0.571% [at 57.1 µM]. `c1ccc(CCc2cccnc2)nc1` was tested, and the Potency was inconclusive [inhibitor, single point].
